PubChem BioAssay AID1508624 (National Center for Advancing Translational Sciences (NCATS), 2021)
The campaign covered roughly 48,000 compounds. About 120 (0.25%) were called active. Roughly 4% stayed inconclusive and do not appear here. Calls come from the whole dose curve; as a rule, active = well fitted activation curve with a large enough effect; inconclusive = small, poorly fitted or top-dose-only effect, or another doubt; inactive = no such curve, though single readings can be large or run the other way. This is one part of the list.

Assay: Primary qHTS for Identification of Small Molecule Activators of Huntingtin-Antisense Promoter Activity; note: nearly all actives have a fitted effect of over 55% in size
Conditions: HEK293 HTT-AS promoter firefly luciferase reporter, 24 h; series mostly up to 57.5 µM; activity change, positive = activation: at the top concentration
In short: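 Firefly luciferase signal from promoter-reporter HEK293 cells was scaled between vehicle (0%) and zero RLU (-100%). Compounds were tested at final concentrations of up to 57.5 uM over 24 h at 37 degrees C. PTC124 at 50 uM final served as control inhibitor.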

Activity change, positive = activation, inactive:
COCCNC(=O)CSc1nc2cc3c(cc2c(=O)n1CCCCCC(=O)NCc1ccc(OC)cc1)OCO3 -5.88%
COc1ccc(CNC(=O)c2ccc3c(c2)nc2n3CCC(C)C2)c(OC)c1 (configuration not stated) 5.45%
CCOc1ccccc1NC(=O)Cn1nnc2sc(-c3ccccc3)cc2c1=O -12.9%
CCSc1ncc(Cl)c(C(=O)Nc2ccc(S(=O)(=O)N(C)c3ccccc3)cc2)n1 -23.3%
CCCSCCCNC(=O)c1ccc2nc(Cc3ccccc3)oc2c1 -11%
Cc1cc(Nc2cccc(Cl)c2)nc2ccc(NC(=O)c3cccnc3)cc12 -60.1%
CCc1ccc(CNC(=O)CN2CCSc3ccccc32)cc1 -11.8%
Cc1ccc(NC(=O)C(=O)NCC2(c3ccccc3)CCCC2)cc1Cl 10.7%
O=C(NCCc1ccccc1)c1cnn(-c2ccc(F)cc2)c1-n1cccc1 -25.7%
CCOC(=O)N1CCc2c(sc3c2c(=O)n(CCc2ccccc2)c(=O)n3Cc2c(F)cccc2Cl)C1 -7.63%
Cc1ccc(NC(=O)CSc2nc3n[nH]c(C)c3c(=N)n2-c2cccc(C)c2)cc1 -40.7%
O=C(CN1C(=O)COc2ccc(S(=O)(=O)N3CCCCCC3)cc21)NCc1ccc(F)cc1 -16.7%
COc1ccc(N2CCN(c3oc(/C=C/c4cc(OC)c(OC)c(OC)c4)nc3C#N)CC2)cc1 -14.3%
COc1cc(C(=O)Nc2ccc3oc(-c4ccc(C)c(Br)c4)nc3c2)cc(OC)c1OC 22.6% [at 11.5 µM, percent change from vehicle, -100% = no light]
Cc1cc(C)cc(Oc2nc3c(c(=O)n(C)c(=O)n3C)n2Cc2ccc(F)cc2)c1 3.58%
COc1ccc(F)cc1S(=O)(=O)NCCc1sc2nc(-c3ccc(F)cc3)nn2c1C -19.1%
CCc1nnc(SCC(=O)Nc2ccc(F)cc2F)c2cc3sc(C)cc3n12 3.1%
COc1ccc(Nc2cc(C(=O)NCc3ccccc3OC)c3ccccc3n2)cc1 1.48%
Cc1cc(OCC(=O)N(Cc2sccc2C)C2CCS(=O)(=O)C2)ccc1Cl (configuration not stated) -23%
COc1ccc(CNC(=O)CN2C(=O)c3cccnc3Oc3ccc(C)cc32)cc1 -10.2%
Cc1cc(C)c2c(CC(=O)Nc3c(C(=O)Nc4ccc(Cl)cc4)oc4ccccc34)coc2c1 7.48%
CCc1cccc(C)c1NC(=O)CSc1nnc(CC)n2c1cc1occc12 -34.4%
CCOC(=O)C1CCCN(c2nc3c(S(=O)(=O)c4ccc(C)c(C)c4)nnn3c3ccc(Cl)cc23)C1 (configuration not stated) 12.3%
CCn1c(=O)c2sccc2n2c(CCC(=O)Nc3cc(C)cc(C)c3)nnc12 -4.85%
Cc1ccc(Cl)cc1N1CCN(c2ncnc3onc(C)c23)CC1 -34.8%
COc1cccc(N2CCN(C(=O)C3CCN(S(=O)(=O)c4ccc5c(c4)oc(=O)n5C)CC3)CC2)c1 -25.2%
COc1ccc2c(c1)CC(C(=O)NCCCN1CCN(c3ccc(F)cc3)CC1)CO2 (configuration not stated) -23.3%
COc1cccc(C(=O)Nc2cc3c(cc2C(=O)c2ccc(C)cc2)OCCO3)c1 -7.42%
Cc1cc(C)c2c(CC(=O)N(Cc3ccccc3)C3CCS(=O)(=O)C3)coc2c1 (configuration not stated) -18.2%
CCC(=O)N1CCc2cc(Br)cc(S(=O)(=O)N3CCCC(C(=O)N(C)c4ccc(Br)cc4)C3)c21 (configuration not stated) -42%
Cn1c(=O)oc2cc(S(=O)(=O)Nc3ccc(C(=O)O)cc3)ccc21 -3.69%
COc1ccccc1CNC(=O)c1ccc(-c2nc(CN3CCc4ccccc43)c(C)o2)cc1 -36.6%
Cc1ccc(OCC(=O)Nc2ccc3nc(SCC(=O)N4CCc5ccccc54)sc3c2)cc1 -13.5%
COc1ccc(NC(=O)c2cccn2-c2nnc(N3CCCCC3)s2)cc1 12.9%
Cn1cc(C(=O)N2CCN(c3cccc(C(F)(F)F)c3)CC2)c2c3ccccc3n(C)c2c1=O -41.4%
CC(=O)Nc1ccc(NC(=O)Cn2nc(C(=O)Nc3ccc(C)cc3)ccc2=O)cc1 -4.37%
O=C(O)CCn1cnc2onc(-c3cc(F)cc(F)c3)c2c1=O 12.5%
CCCOc1ccc(Oc2nc(NCC(C)C)nc(N3CCOCC3)n2)nn1 -12.5%
COc1ccccc1N1CCN(c2nc(-c3ccc(C)cc3)nc3ccccc23)CC1 -19.8%
COc1cccc(NC(=O)C2CCCN(S(=O)(=O)c3ccc4[nH]c(=O)ccc4c3)C2)c1 (configuration not stated) -9.63%
CC(C)(C)NC(=O)[C@H]1CC[C@H]2[C@@H]3CC[C@H]4NC(=O)C=C[C@]4(C)[C@H]3CC[C@]12C
O=C(Nc1ccc(OCc2cc(=O)n3c4c(sc3n2)CCCC4)cc1)c1ccccc1 -7.77%
CCOc1ccc(OCC)c(NS(=O)(=O)c2c(C(=O)N3CCC(C)CC3)c(C)n(C)c2C)c1 -16.8%
CCOc1ccc(NC(=O)CN(c2ccc(Cl)cc2C)S(=O)(=O)c2ccccc2)cc1 -24.1%
COc1ccc(N2CC(NC(=O)c3ccc4c(c3)OCO4)CC2=O)cc1 (configuration not stated) -1.6%
COc1ccc(NC(=O)CN(c2ccc(C)cc2)S(=O)(=O)c2cccc3nonc23)cc1OC 9.38%
Cc1ccc(-n2c(SCC(=O)O)nc3sc4c(c3c2=O)CCCC4)cc1 -8.84%
COc1cccc(-n2c(SCC(=O)c3ccc(Cl)cc3)nc3c([nH]c4ccccc43)c2=O)c1 -54.1%
COC(=O)Cn1c(=O)c2c(nc3n2CCN3c2ccc(F)cc2)n(C)c1=O -14.8%
CSc1ccc(CNC(=O)c2ccc(NC(=O)c3nsc4ccccc34)cc2)cc1 -58.4%
O=C(NCc1ccccc1Cl)NCc1noc2ccccc12 22.9%
Cc1ccccc1NC(=O)Cn1c(=O)n(CC2CCC(C(=O)NCCc3ccccc3)CC2)c(=O)c2ccccc21 (configuration not stated) -7.46%
Cc1ccc(CNS(=O)(=O)c2ccc(-c3cc(C(F)(F)F)on3)s2)cc1 -6.66%
Cc1ccc(N2C(=O)[C@@H]3CSC(c4ccc(F)cc4)N3C2=O)cc1 (some centres not stated) -32.2%
COc1ccc(Cl)cc1NC(=O)Cn1c(=O)n(CCC(=O)NCc2ccc3c(c2)OCO3)c(=O)c2ccccc21 -52.1%
O=C(Nc1ccc(Cl)c(-c2nc3cc(Cl)ccc3o2)c1)c1cc([N+](=O)[O-])ccc1N1CCOCC1 -25.3%
COc1cc(NC(=O)COCc2cc(-c3ccc(F)cc3)on2)cc(OC)c1OC -27.4%
Cc1nn(C(C)(C)C)c(OC(=O)C(C)(C)C)c1Sc1ccccc1 -9.6%
CCOc1ccc(C(=O)c2c(N)c(-c3nc(-c4ccc5c(c4)OCO5)cs3)c3ccccn23)cc1 5.41%
COC(=O)Cn1c(=O)c2cccn2c2cccnc21 -6.39%
Cc1ccsc1CN(C(=O)c1oc2cc(Br)ccc2c1C)C1CCS(=O)(=O)C1 (configuration not stated) -46.7%
Cc1cc(C(=O)Nc2ccc(C(C)C)cc2)c2c(C)nn(-c3ccccc3)c2n1 1.46%
COc1cccc(CNC(=O)CSc2c3c(nc4cc(Cl)ccc24)CCCC3)c1 -30%
CN(C)CCCN(C(=O)c1ccc2c(c1)OCCO2)c1nc2ccccc2s1 25.5%
CCOc1ccccc1NC(=O)Cn1cc(C(=O)c2ccc(Cl)cc2)c(=O)c2ccc(C)nc21 -10.4%
COc1ccc(Cn2c(=O)c3oc4ccccc4c3n(Cc3cccc(C)c3)c2=O)cc1 -14.3%
COc1ccccc1CNc1ccc(-c2nc(-c3ccco3)no2)cc1[N+](=O)[O-] 7.91%
Cc1cccc2c(=O)cc(CSc3ccccc3NC(=O)c3cccc(F)c3)[nH]c12 -10.3%
CC(C)OC(=O)CCCC=CC[C@@H]1[C@H](C=C[C@@H](O)COc2cccc(C(F)(F)F)c2)[C@H](O)C[C@@H]1O -33.9%
COc1ccc(NC(=O)Cn2cnc3c(oc4ccccc43)c2=O)cc1OC 13.8%
CC(C)NC(=O)C1CCC(Cn2c(=O)c3sccc3n(CC(=O)NCc3ccccc3)c2=O)CC1 (configuration not stated) -9.6%
CCCOc1c(Cl)cc(C(=O)N(Cc2cccc(OC)c2)C2CCS(=O)(=O)C2)cc1Cl (configuration not stated) -11.1%
CCOc1ccc(NC(=O)c2cnc(N3CCCCC3)c3ccccc23)cc1 -17.6%
CCOC(=O)c1c(-c2ccccc2)csc1NC(=O)c1cc(-c2ccc(F)cc2)on1 -0.979%
O=C(NCc1ccc2c(c1)OCO2)c1ccc2c(c1)N(Cc1ccccc1)C(=O)c1ccccc1S2=O (configuration not stated) -12%
CC(C)n1cnc(S(=O)(=O)N2CCCC(C(=O)NCc3ccccc3Cl)C2)c1 (configuration not stated) -6.41%
CN(c1ccccc1)S(=O)(=O)c1nnc(NC(=O)c2ccccc2)s1 -2.79%
Cc1ccc(C(=O)N(CCCN)[C@@H](c2oc3cc(Cl)ccc3c(=O)c2Cc2ccccc2)C(C)C)cc1 -30.8%
COCCCNc1nc2cc(OC)c(OC)cc2c2nc(-c3ccccc3)nn12 -9.91%
Cc1ccccc1N1CC(C(=O)Nc2ccc(Br)cc2)CC1=O (configuration not stated) -13.6%
COc1ccc(CNC(=O)CN2N=C(c3ccccc3)CCC2=O)c(OC)c1 -7.84%
CCn1c(=O)c(=O)n(CC)c2cc(N3CCCCC3)c(NC(=O)c3ccc(Cl)cc3)cc21 -4.94%
Cc1nnc(N2CCCC(C(=O)NCc3ccccc3F)C2)c2nn(-c3ccc(Cl)cc3)c(C)c12 (configuration not stated) -9.53%
COc1ccc(C(=O)NCc2nnc(SCC(=O)Nc3ccccc3)n2-c2ccccc2)cc1 -7.46%
COc1cc(Cl)c(C)cc1NC(=O)c1ccc2c(SCC(=O)O)c3c(nc2c1)CCCC3 -1.2%
O=C(CSc1n[nH]c(-c2ccccc2)n1)NCCCc1ccccc1 -20.9%
Cc1ccc(-n2nnc(-c3nsc(NC(=O)c4cccc(Cl)c4)n3)c2C)cc1C -16.5%
CC(C)CCNC(=O)c1ccc2c(c1)N(Cc1cccc(Cl)c1)C(=O)c1ccccc1S2 -26.4%
CCCC(=O)n1nc(-c2ccco2)nc1NCc1ccccc1Cl 21.5%
Cc1cc2nn(-c3ccc(F)cc3)nc2cc1NC(=O)c1cccc2ccccc12 6.66%
O=C(Nc1nnc(S(=O)(=O)N2CCOCC2)s1)c1ccccc1Cl -14.5%
Nc1nc(N)c2nc(-c3ccccc3)c(N)nc2n1 18.4%
